Reference: article PMC5454113, “Factor V has an anticoagulant cofactor activity that targets the early phase of coagulation” (The Journal of Biological Chemistry, 2017)
Each block holds one binder with its values, some of them ahead of it.

How the values were obtained:
activated factor X (FXa) [1] = target: T1, activated factor X (FXa) (UniProt P00742 41-179; P00742 235-488); assay: enzyme inhibition kinetics (chromogenic substrate); as a1, with 30 nM FVa (FV activated with human α thrombin, stopped with hirudin) and 100 nM protein S; conditions: both partners purified
T1 construct: Two disulfide-linked chains; also called factor Xa; source: bought: Hematologic Technologies Inc. (HTI)

activated factor X (FXa) [2] = target: T1, activated factor X (FXa); assay: enzyme inhibition kinetics (chromogenic substrate); as a1, with 100 nM protein S chimera III, no FV; conditions: both partners purified
T1 sequence (P00742 41-179, chain 1 of 2): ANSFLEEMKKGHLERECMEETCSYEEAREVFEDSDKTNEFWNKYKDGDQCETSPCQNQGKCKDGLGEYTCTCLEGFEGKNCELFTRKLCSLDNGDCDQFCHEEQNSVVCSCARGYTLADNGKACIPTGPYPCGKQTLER
T1 sequence (P00742 235-488, chain 2 of 2): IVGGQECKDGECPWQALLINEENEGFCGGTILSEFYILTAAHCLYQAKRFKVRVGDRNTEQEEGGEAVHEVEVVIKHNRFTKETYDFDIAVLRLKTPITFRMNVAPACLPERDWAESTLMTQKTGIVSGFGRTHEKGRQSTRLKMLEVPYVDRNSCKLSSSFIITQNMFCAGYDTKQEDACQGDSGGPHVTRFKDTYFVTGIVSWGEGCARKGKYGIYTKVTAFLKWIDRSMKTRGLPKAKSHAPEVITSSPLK

activated factor X (FXa) [3] = target: T1, activated factor X (FXa); assay: enzyme inhibition kinetics (chromogenic substrate); as a1, with 30 nM recombinant FV and 100 nM protein S chimera III; conditions: both partners purified
activated factor X (FXa) [4] = target: T1, activated factor X (FXa); assay: enzyme inhibition kinetics (chromogenic substrate); as a1, with 30 nM recombinant FV and 100 nM protein S; conditions: both partners purified
activated factor X (FXa) [5] = target: T1, activated factor X (FXa); assay: enzyme inhibition kinetics (chromogenic substrate); as a1, with 30 nM FV^ΔIIa (FV R709Q/R1018Q/R1545Q), no protein S; conditions: both partners purified
activated factor X (FXa) [6] = target: T1, activated factor X (FXa); assay: enzyme inhibition kinetics (chromogenic substrate); as a1, with 30 nM FV810 (recombinant B domain-deleted FV) and 100 nM protein S; conditions: both partners purified
activated factor X (FXa) [7] = target: T1, activated factor X (FXa); assay: cell-based or functional assay
activated factor X (FXa) [8] = target: T1, activated factor X (FXa); assay: enzyme inhibition kinetics (chromogenic substrate); as a1, with 100 nM protein S, no FV; conditions: both partners purified
activated factor X (FXa) [9] = target: T1, activated factor X (FXa); assay: enzyme inhibition kinetics (chromogenic substrate); FXa 0.3 nM, TFPI 0–16 nM, S-2765 200 uM, 25 uM phospholipids (DOPC/DOPS/DOPE 60:20:20), 5 mM CaCl2, 25 °C, 60 min; no protein S, no FV; Ki = encounter complex, Ki* = overall dissociation constant; conditions: both partners purified
activated factor X (FXa) [10] = target: T1, activated factor X (FXa); assay: enzyme inhibition kinetics (chromogenic substrate); as a1, with 30 nM FVa (FV activated with human α thrombin, stopped with hirudin), no protein S; conditions: both partners purified
activated factor X (FXa) [11] = target: T1, activated factor X (FXa); assay: enzyme inhibition kinetics (chromogenic substrate); as a1, with 30 nM FV^ΔIIa (FV R709Q/R1018Q/R1545Q) and 100 nM protein S; conditions: both partners purified
activated factor X (FXa) [12] = target: T1, activated factor X (FXa); assay: enzyme inhibition kinetics (chromogenic substrate); FXa 0.3 nM, TFPI 0–16 nM, S-2765 200 uM, 25 uM phospholipids (DOPC/DOPS/DOPE 60:20:20), 5 mM CaCl2, 25 °C, 60 min; no protein S, no FV; Ki = encounter complex, Ki* = overall dissociation constant; conditions: both partners purified; remark: listed apart in the source
activated factor X (FXa) [13] = target: T1, activated factor X (FXa); assay: enzyme inhibition kinetics (chromogenic substrate); as a1, with 30 nM recombinant FV, no protein S; conditions: both partners purified
activated factor X (FXa) [14] = target: T1, activated factor X (FXa); assay: as above; conditions: both partners purified; remark: listed apart in the source
activated factor X (FXa) [15] = target: T1, activated factor X (FXa); assay: enzyme inhibition kinetics (chromogenic substrate); as a1, with 30 nM FV810 (recombinant B domain-deleted FV), no protein S; conditions: both partners purified
activated factor X (FXa) [16] = target: T1, activated factor X (FXa); assay: enzyme inhibition kinetics (chromogenic substrate); as a1, with 30 nM recombinant FV, no protein S; conditions: both partners purified; remark: listed apart in the source
activated factor X (FXa) [17] = target: T1, activated factor X (FXa); assay: enzyme inhibition kinetics (chromogenic substrate); as a1, with 30 nM recombinant FV and 100 nM protein S; conditions: both partners purified; remark: listed apart in the source
activated factor X (FXa) [18] = target: T1, activated factor X (FXa); assay: enzyme inhibition kinetics (chromogenic substrate); FXa 0.3 nM, TFPI 0–16 nM, S-2765 200 uM, 25 uM phospholipids (DOPC/DOPS/DOPE 60:20:20), 5 mM CaCl2, 25 °C, 60 min; no protein S, no FV; Ki = encounter complex, Ki* = overall dissociation constant; conditions: both partners purified; remark: listed apart in the source
activated factor X (FXa) [19] = target: T1, activated factor X (FXa); assay: enzyme inhibition kinetics (chromogenic substrate); as a1, with 100 nM protein S, no FV; conditions: both partners purified; remark: listed apart in the source

Ki (activated factor X (FXa) [1]): 0.019 nM | Ki of the encounter complex (first step) (activated factor X (FXa) [1]): 1.87 nM | Ki (activated factor X (FXa) [2]): 0.047 nM | Ki of the encounter complex (first step) (activated factor X (FXa) [2]): 2.87 nM | Ki (activated factor X (FXa) [3]): 0.072 nM | Ki of the encounter complex (first step) (activated factor X (FXa) [3]): 1.49 nM | Ki (activated factor X (FXa) [4]): 0.008 nM | Ki of the encounter complex (first step) (activated factor X (FXa) [4]): 0.36 nM | Ki (activated factor X (FXa) [5]): 0.037 nM | Ki of the encounter complex (first step) (activated factor X (FXa) [5]): 1.7 nM | Ki (activated factor X (FXa) [6]): 0.04 nM | Ki of the encounter complex (first step) (activated factor X (FXa) [6]): 2.23 nM | IC50 of TFPI for FXa-catalysed prothrombin activation (thrombin substrate S-2238), no FV, no protein S (activated factor X (FXa) [7]): 2.94 nM | IC50 of TFPI for FXa-catalysed prothrombin activation (thrombin substrate S-2238), no FV, with 100 nM protein S (activated factor X (FXa) [7]): 0.51 nM | IC50 of TFPI for FXa-catalysed prothrombin activation (thrombin substrate S-2238), with 200 pM FV and 100 nM protein S (activated factor X (FXa) [7]): 0.25 nM | IC50 of TFPI for FXa-catalysed prothrombin activation (thrombin substrate S-2238), with 200 pM FV, no protein S (activated factor X (FXa) [7]): 4.12 nM | IC50 of TFPI for FXa-catalysed prothrombin activation (thrombin substrate S-2238), with 200 pM FV^ΔIIa and 100 nM protein S (activated factor X (FXa) [7]): 0.25 nM | IC50 of TFPI for FXa-catalysed prothrombin activation (thrombin substrate S-2238), with 200 pM FV^ΔIIa, no protein S (activated factor X (FXa) [7]): 2.79 nM | Ki (activated factor X (FXa) [8]): 0.016 nM | Ki of the encounter complex (first step) (activated factor X (FXa) [8]): 0.7 nM | Ki (activated factor X (FXa) [9]): 0.034 nM | Ki of the encounter complex (first step) (activated factor X (FXa) [9]): 2.71 nM | Ki (activated factor X (FXa) [10]): 0.16 nM | Ki of the encounter complex (first step) (activated factor X (FXa) [10]): 3.96 nM | Ki (activated factor X (FXa) [11]): 0.013 nM | Ki of the encounter complex (first step) (activated factor X (FXa) [11]): 0.23 nM | Ki (activated factor X (FXa) [12]): 0.065 nM | Ki of the encounter complex (first step) (activated factor X (FXa) [12]): 2.16 nM | Ki (activated factor X (FXa) [13]): 0.06 nM | Ki of the encounter complex (first step) (activated factor X (FXa) [13]): 3.87 nM | Ki (activated factor X (FXa) [14]): 0.042 nM | Ki of the encounter complex (first step) (activated factor X (FXa) [14]): 2.03 nM | Ki (activated factor X (FXa) [15]): 0.021 nM | Ki of the encounter complex (first step) (activated factor X (FXa) [15]): 7.16 nM
B1: Tissue factor pathway inhibitor (TFPI), recombinant full-length (natural protein)
chain: not shown
notes: estimated by ELISA to be 88–100% full-length; also called full-length TFPI

Ki (activated factor X (FXa) [16]): 0.025 nM | Ki of the encounter complex (first step) (activated factor X (FXa) [16]): 4.38 nM | Ki (activated factor X (FXa) [17]): 0.022 nM | Ki of the encounter complex (first step) (activated factor X (FXa) [17]): 2.07 nM | Ki (activated factor X (FXa) [18]): 0.021 nM | Ki of the encounter complex (first step) (activated factor X (FXa) [18]): 2.23 nM | Ki (activated factor X (FXa) [19]): 0.028 nM | Ki of the encounter complex (first step) (activated factor X (FXa) [19]): 2.61 nM
B2: TFPI E226Q (natural protein)
chain: not shown
